# From PMC6212790
# The list shows a part of the results. At the low end of the ranking the order means little.
# Target: T1, GST-Rok-C97-191 (UniProt O34857)
# T1 sequence: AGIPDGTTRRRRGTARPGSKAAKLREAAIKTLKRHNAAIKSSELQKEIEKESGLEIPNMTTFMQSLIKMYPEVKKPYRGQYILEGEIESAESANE
# Experiment: protein binding microarray;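 further: rank score from −0.5 (least bound) to 0.5 (best bound)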
# Conditions: Rok is a gene silencer of Bacillus subtilis; high values mean tight binding; most listed sequences are background and not binding sites; double strand, one strand shown
row,Sequence,binding signal [E-score]
1,CTCGTTGC,-0.146
2,AATCAGCT,-0.0916
3,ACTATCCT,0.0451
4,ACAGTCAT,-0.0276
5,CCCCGCGG,-0.269
6,CAGAGTCC,-0.384
7,CATACGTC,-0.0219
8,TAGAGTGA,-0.151
9,ACCGGATA,0.0326
10,AAGACAAC,-0.213
11,ACCTTAGG,-0.104
12,ATCCGGAG,-0.0922
13,CGGTCAAG,-0.131
14,ATTCAGTG,0.00617
15,CCTGCTGC,-0.273
16,AAGCACAT,0.0735
17,TGTACTAA,0.191
18,GAGATGCA,-0.169
19,TAGCGCAA,0.156
20,CAGATCCA,-0.202
21,CCTATCAG,-0.0255
22,ATCATAAG,0.109
23,CGCTACTC,0.0534
24,AAATAGAG,-0.0395
25,ACTGACTC,0.038

row,Sequence,binding signal [E-score]
1,ATGTCTTG,-0.0117
2,CGCGAAAC,0.0656
3,CCCCATTC,-0.119
4,AAACCGGA,0.034
5,AGCCCCGA,-0.198
6,ACGCGTTA,0.104
7,GGACATAC,-0.0461
8,AACAACAG,-0.0537
9,CTCAGTCA,-0.291
10,CACCGGAG,-0.174
11,CAACAAAC,-0.0116
12,AACCTCCG,-0.108
13,AACTATAT,0.415
14,TCTCCCAA,-0.0541
15,CAGCTAGC,-0.0772
16,AAACTCAA,0.104
17,CACATACA,0.107
18,CCCTTCAA,-0.108
19,CTCTCAAG,-0.094
20,AAGCGCTT,-0.25
21,AATGATCT,0.126
22,CTAGCCTC,-0.000521
23,AGTCCATA,-0.0806
24,AAACTCCT,0.0209
25,AAGTTACT,0.123

row,Sequence,binding signal [E-score]
1,ACGCACGC,-0.152
2,AATAGGTC,0.0562
3,AAATAGCC,0.0812
4,AACGGAAT,0.121
5,GTTTCCAA,-0.0629
6,CGCGTTTC,0.0796
7,CAACCAAC,0.126
8,CAATTTCA,0.196
9,CAAACCGC,-0.0556
10,ACACTTCA,0.0497
11,AAACACGC,-0.0642
12,ACGTTGTA,0.158
13,CTGCGTGA,-0.0106
14,ACCGTCCA,-0.221
15,GACCGGGA,-0.0628
16,GGTTAATA,0.17
17,GGTTCTGA,-0.078
18,AGGCTGCG,-0.213
19,GGATATTA,0.12
20,GAAATACA,0.226
21,GAGCGACC,-0.0691
22,ATACCCGG,0.22
23,AGATGAAC,0.0958
24,CTCTAAAG,-0.258
25,GAACAGTC,-0.117

row,Sequence,binding signal [E-score]
1,ACACTCAC,-0.00806
2,AACCTGAG,-0.155
3,CGCGGCGA,-0.212
4,CCCAAACC,-0.167
5,ACAAACTC,0.00994
6,ACTGATTA,0.104
7,CTACGGCC,-0.14
8,ATGATGTA,0.189
9,AGGAGCCT,-0.299
10,GTTAAATA,0.303
11,TCTGGGCA,-0.19
12,GGGTGTAA,-0.000395
13,AAGGGGCT,-0.408
14,ACTTGCGC,0.0949
15,ACGCGCTA,0.207
16,CGATACCC,-0.0696
17,CGACCCAC,0.0686
18,ATGAAATA,0.165
19,GCAAGGGC,-0.191
20,AGGAGTTC,-0.0585
21,GTCCTCTA,-0.266
22,CTGGGAAG,-0.0965
23,ATGATACG,0.141
24,CCGTAAAC,-0.0202
25,ATACCAGA,-0.104

row,Sequence,binding signal [E-score]
1,ACCCCGAG,-0.212
2,GAAAGCGC,-0.156
3,AGTGAGAC,6.04e-05
4,ACCCAACG,0.0271
5,ATCTCATG,0.0778
6,ATCCCCAC,-0.147
7,CTAACTAA,0.288
8,ATGCGTCC,-0.17
9,ACGGGTAC,-0.00616
10,ATAGCATC,0.209
11,CCGCACGC,-0.306
12,ATAGTAGG,0.329
13,GCTTGAAA,0.0177
14,CTGTGAAG,-0.094
15,CCGCTCAA,-0.107
16,GGACTCCA,-0.288
17,GCGTAAGA,0.0385
18,GGACCCAA,-0.25
19,CTTGCGGA,-0.0439
20,GTCCCAAA,-0.19
21,AGAATTAT,0.248
22,GCTCCGCA,-0.186
23,GAACGATA,0.255
24,GATACATC,0.144
25,AGAGCCAG,-0.194

row,Sequence,binding signal [E-score]
1,GGACTTGA,-0.0308
2,CAACACGG,-0.0228
3,GGTCTAGA,-0.0469
4,ATCGCGAT,0.206
5,CCTAGAGC,-0.0824
6,CGCATGGC,-0.214
7,CACGATCC,-0.202
8,CCTAGTGC,-0.0461
9,AGTACGAG,0.125
10,ACACAGCT,-0.128
11,CCGGTTCA,-0.203
12,ATAAGAAT,0.215
13,GTCAACGA,-0.108
14,GAGAGGGC,-0.301
15,ACGTTCGC,-0.134
16,CTGTTTGC,-0.128
17,ACGCGCAT,-0.158
18,CGTACGCC,-0.0607
19,GATTGAGA,0.0238
20,AACAACAT,0.0111
21,ATGTCTGG,-0.172
22,CGCCCTCA,-0.284
23,AATTACTA,0.43
24,CCCTCGGC,-0.322
25,GGGCCTCA,-0.247

row,Sequence,binding signal [E-score]
1,AGATCATA,0.191
2,ATTTAAGA,0.0208
3,AGAACCTC,-0.0956
4,GGTTTGAC,-0.0128
5,AAGTTGAC,0.0588
6,AGACCTTC,-0.162
7,CGGCATCC,-0.204
8,CGCCTCTA,-0.151
9,AAGGTGTG,-0.228
10,CCCGGCCC,-0.25
11,GGCTCATA,-0.312
12,GGTGCGAC,-0.322
13,CGGAAAAA,-0.0398
14,TCATCCCA,0.0171
15,ACCAGGCA,-0.261
16,CTACTAGA,0.293
17,ACTGTTTA,0.0965
18,ATCGCAGG,-0.154
19,CAAAAGTC,-0.0954
20,CGACCTCG,-0.15
21,CCATGAAG,-0.227
22,CGGGCAGC,-0.206
